Drawing on PubChem BioAssay (NCATS), this text covers AC50 for 39 molecules.

Structures are written as SMILES. Where “and” joins values, the source holds several entries; their conditions need not be identical. Identical values can stand only once. The list shows a part of the results. Further columns of the screen follow, without active or inactive calls. The list favours compounds with an active or inconclusive main result. The note in brackets gives the kind of curve behind each potency; many fits are weak.

By AC50 is commonly meant the concentration giving half of the maximal activity seen.
Tags give direction and shape of the fitted curve.

A short description of this assay: qHTS Assay for Lipid Storage Modulators (AID 1519). The following applies: Drosophila S3 cells, BODIPY lipid droplet/cell ratio, laser cytometry; measured here: lipid (BODIPY) channel AC50; cells loaded with oleic acid. The essentials:
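Cells seeded at 5,000 per well were treated with compounds over a concentration series and loaded with oleic acid (400 uM, as added). Lipid droplet fluorescence (488 nm excitation, 500-530 nm channel) was read by laser-scanning cytometry and normalized to 20 uM Triacsin C.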
(Quantitative high-throughput screening tests each substance at several concentrations.)
For the molecule `NCCCP(=O)(O)CC1CCCCC1`, the AC50 is 35.5 µM [rising, partial curve, poor fit]. In the case of `CN(C)Cc1c[nH]c2ccccc12` it was 3.55 µM [rising, full curve, poor fit]; in that of `O=C(CCCN1CCC2(CC1)C(=O)N(Cc1cccc(F)c1)CN2c1ccccc1)c1ccc(F)cc1`, 4.47 µM [rising, full curve, poor fit]. As for `O=CN1CCCCC1C1CC[C@H]2CCCCN2C1` (some centres undefined), the figure is 35.5 µM [rising, single point]; as for `CN1C[C@H](C(=O)N[C@]2(C)O[C@@]3(O)[C@H]4CCCN4C(=O)[C@H](Cc4ccccc4)N3C2=O)C[C@H]2c3cccc4[nH]cc(c34)C[C@@H]21`, 2.82 µM [rising, full curve, poor fit]; as for `C=CCN1CCC23c4c5ccc(O)c4O[C@H]2C(=O)CC[C@@]3(O)C1C5` (some centres undefined), 15.8 µM [falling, single point]. In the case of `Cc1nnc2ccc(-c3cccc(C(F)(F)F)c3)nn12` it was 1.26 µM [rising, full curve].

On to `CN(C(=O)Cc1ccc(Cl)c(Cl)c1)[C@H](CN1CCCC1)c1cccc(N=C=S)c1`, for which the AC50 is 14.1 µM [rising, partial curve]. As for `CCCN1CCO[C@@H]2c3cc(O)ccc3OC[C@@H]21`, the figure is 2.24 µM [falling, partial curve, poor fit]; as for `O=C(NC[C@H]1CCCCN1)c1cc(OCC(F)(F)F)ccc1OCC(F)(F)F`, 31.6 µM [rising, partial curve, poor fit]. As for `C[C@H](Cc1ccc2c(c1)OC(C(=O)O)(C(=O)O)O2)NC[C@H](O)c1cccc(Cl)c1`, the figure is 39.8 µM [rising, single point]. For `NC[C@H](CP(=O)(O)O)c1ccc(Cl)cc1`, the AC50 is 15.8 µM [rising, full curve, poor fit]. As for `CC1=CC(=O)c2c(O)cccc2C1=O`, the figure is 8.91 µM [falling, partial curve] and 39.8 µM [falling, single point]; as for `CC1(C)N(O)C(c2ccc(C(=O)O)cc2)=[N+]([O-])C1(C)C`, 39.8 µM [rising, single point]; as for `Cc1c(C(=O)c2ccc3ccccc3c2)c2cccc3c2n1[C@H](CN1CCOCC1)CO3`, 3.98 µM [rising, full curve].

For `CC1=NCCc2c1[nH]c1cc(O)ccc21`, the AC50 is 14.1 µM [rising, partial curve]. In the case of `Clc1ccc(N2CC3CCC(C2)N3)nn1` it was 39.8 µM [rising, single point]; in that of `CC(=O)C1=C(O)[C@@H]2[C@@H]3c4c[nH]c5cccc(c45)C[C@@H]3C(C)(C)N2C1=O`, 28.2 µM [rising, partial curve, poor fit]; in that of `c1cc2c(cc1[C@H]1OC[C@@H]3[C@H]1CO[C@H]3c1ccc3c(c1)OCO3)OCO2`, 12.6 µM [rising, partial curve]. Consider `COc1ccc2[nH]cc(CCN(C)C)c2c1`, for which the AC50 was 7.94 µM [falling, full curve, poor fit]. In the case of `CCCCCCC(C)(C)c1ccc([C@@H]2C[C@H](O)CC[C@@H]2CCCO)c(O)c1`, the AC50 is 2.82 µM [rising, full curve]. In the case of `COc1ccc2c(c1OC)C(=O)O[C@@H]2C1c2cc3c(cc2CCN1C)OCO3` (some centres undefined) it was 1.41 µM [rising, full curve]; in that of `CCC1/C=C/C=CCC(C)C(O)[C@@](C)(O)C(=O)C(C)C(O)C(C)C(=O)C(C)C(O)C(C)C=CC(=O)O[C@H]2C(C)C(CC1)O[C@]1(CCC(C)C(CC(C)O)O1)C2C` (some centres undefined), 0.00794 µM [falling, full curve]. With `Cc1ccc(C(=O)c2ccc(CC(=O)O)n2C)cc1`, the AC50 is 31.6 µM [rising, partial curve]. In the case of `C=CCc1cc(OC)c2c(c1OC)OCO2` it was 5.62 µM [rising, partial curve]; in that of `CN1CCN(C(=O)O[C@@H]2c3nccnc3C(=O)N2c2ccc(Cl)cn2)CC1`, 15.8 µM [rising, single point]. In the case of `c1ccc2nc(C3=NCCN3)cnc2c1` it was 28.2 µM [rising, partial curve]; in that of `COc1ccc(CCN)cc1O`, 7.08 µM [falling, full curve, poor fit].

As for `CC(CCC(=O)O)C1CCC2C3C(=O)C[C@@H]4CC(=O)CC[C@@]4(C)C3CC(=O)[C@]12C` (some centres undefined), the AC50 was 3.16 µM [rising, partial curve]. As for `COc1cc([C@@H]2c3cc4c(cc3[C@H](O)[C@H]3COC(=O)[C@H]23)OCO4)cc(OC)c1OC`, the AC50 is 2 µM [rising, full curve]. As for `COc1cc2c(cc1O)CC1c3c(cc(O)c(OC)c3-2)CCN1C` (centres undefined), the figure is 25.1 µM [rising, partial curve]; as for `CCC1C(=O)OCC1Cc1cncn1C` (centres undefined), 28.2 µM [rising, partial curve, poor fit] and 25.1 µM [rising, partial curve]; as for `COc1cc2ccc(=O)oc2c2ccoc12`, 1 µM [rising, partial curve]. As for `CCCCCC1C(=O)O[C@H](C)[C@@H](NC(=O)c2cccc(NC=O)c2O)C(=O)OC(C)C1OC(=O)CC(C)C` (some centres undefined), the figure is 0.141 µM [falling, full curve]; as for `Clc1ccc(COC(Cn2ccnc2)c2ccc(Cl)cc2Cl)c(Cl)c1` (centres undefined), 20 µM [falling, single point].

Turning to `C[C@@H]1O[C@H](C[N+](C)(C)C)CS1`, the AC50 was 39.8 µM [rising, single point]. As for `CC(=O)Oc1c2c(c(CC=C(C)C)c3c1C(=O)C1=CC4CC5C(C)(C)OC(C/C=C(\C)C(=O)O)(C4=O)[C@]15O3)OC(C)(CCC=C(C)C)C=C2` (some centres undefined), the figure is 6.31 µM [falling, full curve]. In the case of `C=C1CCC(O)C/C1=C\C=C1/CCCC2(C)C1CCC2C(C)CCCC(C)C` (centres undefined) it was 35.5 µM [rising, partial curve]; in that of `C[C@H]1O[C@@H](O[C@H]2[C@@H](O)C[C@H](O[C@H]3[C@@H](O)C[C@H](O[C@H]4CC[C@]5(C)C6CC[C@]7(C)[C@@H](C8=CC(=O)OC8)CC[C@]7(O)C6CC[C@@H]5C4)O[C@@H]3C)O[C@@H]2C)C[C@H](O)[C@@H]1O` (some centres undefined), 4.47 µM [rising, partial curve, poor fit].
